# Laboratory results as given in the supplement of paper PMC8728848.
# The other results are listed elsewhere or left out.
# B1: SP15308A-bot-339-19-339 (Bacteroides ovatus) (protein)
# chain: ACNNEWEDEQYEQYISFKSPIPAGGEGVTDIYVRYKEDGKVTYRLPIVVSGSTTNTLDREVHIAVDKDTLETLNIERFSIHRPGLWYTALEEDKYDFPKTVHISAGSSVEQLNIDFNLQGIDMLEKWVLPLTIVDDPSYNYKSHPRKNYAKALLRVIPFNNYSGSYTSSAMKVYTYINGKPDTNARTANKRTGYVINDNTVFFYAGLISEDLDKEVREKYKINVHFNEDGTLHMEQGDPTNKMKFELIGTPTYSKTSVMDATRPYLERRYVQIMFEYDFEDFSYGGNGVDVIPIKYKVEGSMTLQRNINTQIPDEDQQIEW
# How the values were obtained:
# Experiment in all cases: glycan array binding signal (z-score within array); higher = stronger binding
# Settings in all cases: glycan notation: IUPAC condensed, linker removed
# [1] = target: Fuc(a1-3)[Gal3S(b1-4)]GlcNAc6S
# Method in brief: (§1)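 Glycan array binding is given as a within-array Z-score, which can be read as non-binding when negative. The arrays, 3228 of them, came from the Consortium for Functional Glycomics database and were retained only where the protein sequence was available. Z-scores were averaged across arrays of the same protein sequence at different concentrations or buffers and across linkers.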
# [2] = target: Fuc(a1-3)[GalNAc(b1-4)]GlcNAc
# Method in brief: as §1
# [3] = target: Fuc(a1-3)[GalNAc(b1-4)]GlcNAc6S
# Method in brief: as §1
# Fuc(a1-4)GlcNAc = target: Fuc(a1-4)GlcNAc
# Method in brief: as §1
# Fuc(b1-3)GlcNAc = target: Fuc(b1-3)GlcNAc
# Method in brief: as §1
# Gal(a1-2)Gal = target: Gal(a1-2)Gal
# Method in brief: as §1
# Gal(a1-3)Gal = target: Gal(a1-3)Gal
# Method in brief: as §1
# Gal(a1-3)Gal(b1-3)GlcNAc = target: Gal(a1-3)Gal(b1-3)GlcNAc
# Method in brief: as §1
# [4] = target: Gal(a1-3)Gal(b1-3)GlcNAc(b1-2)Man
# Method in brief: as §1
# [5] = target: Gal(a1-3)Gal(b1-3)GlcNAc(b1-2)Man(a1-3)[Gal(a1-3)Gal(b1-3)GlcNAc(b1-2)Man(a1-6)]Man(b1-4)GlcNAc(b1-4)GlcNAc
# Method in brief: as §1
# [6] = target: Gal(a1-3)Gal(b1-3)GlcNAc(b1-3)GalNAc
# Method in brief: as §1
# [7] = target: Gal(a1-3)Gal(b1-3)GlcNAc(b1-6)GalNAc
# Method in brief: as §1
# [8] = target: Gal(a1-3)Gal(b1-3)[Fuc(a1-4)]GlcNAc(b1-2)Man(a1-3)[Gal(a1-3)Gal(b1-3)[Fuc(a1-4)]GlcNAc(b1-2)Man(a1-6)]Man(b1-4)GlcNAc(b1-4)GlcNAc
# Method in brief: as §1
# Gal(a1-3)Gal(b1-4)Glc = target: Gal(a1-3)Gal(b1-4)Glc
# Method in brief: as §1
# Gal(a1-3)Gal(b1-4)GlcNAc = target: Gal(a1-3)Gal(b1-4)GlcNAc
# Method in brief: as §1
# [9] = target: Gal(a1-3)Gal(b1-4)GlcNAc(b1-2)Man
# Method in brief: as §1
# [10] = target: Gal(a1-3)Gal(b1-4)GlcNAc(b1-2)Man(a1-3)[Gal(a1-3)Gal(b1-4)GlcNAc(b1-2)Man(a1-6)]Man(b1-4)GlcNAc(b1-4)GlcNAc
# Method in brief: as §1
# [11] = target: Gal(a1-3)Gal(b1-4)GlcNAc(b1-3)GalNAc
# Method in brief: as §1
# [12] = target: Gal(a1-3)Gal(b1-4)GlcNAc(b1-6)GalNAc
# Method in brief: as §1
# [13] = target: Gal(a1-3)Gal(b1-4)[Fuc(a1-3)]GlcNAc
# Method in brief: as §1
# [14] = target: Gal(a1-3)Gal(b1-4)[Fuc(a1-3)]GlcNAc(b1-2)Man(a1-3)[Gal(a1-3)Gal(b1-4)[Fuc(a1-3)]GlcNAc(b1-2)Man(a1-6)]Man(b1-4)GlcNAc(b1-4)GlcNAc
# Method in brief: as §1
# Gal(a1-3)GalNAc = target: Gal(a1-3)GalNAc
# Method in brief: as §1
# [15] = target: Gal(a1-3)[Gal(a1-4)]Gal(b1-4)GlcNAc
# Method in brief: as §1
# [16] = target: Gal(a1-4)Gal(b1-3)GlcNAc(b1-2)Man(a1-3)[Gal(a1-4)Gal(b1-3)GlcNAc(b1-2)Man(a1-6)]Man(b1-4)GlcNAc(b1-4)GlcNAc
# Method in brief: as §1
# Gal(a1-4)Gal(b1-4)Glc = target: Gal(a1-4)Gal(b1-4)Glc
# Method in brief: as §1
# Gal(a1-4)Gal(b1-4)GlcNAc = target: Gal(a1-4)Gal(b1-4)GlcNAc
# Method in brief: as §1
# [17] = target: Gal(a1-4)Gal(b1-4)GlcNAc(b1-2)Man(a1-3)[Gal(a1-4)Gal(b1-4)GlcNAc(b1-2)Man(a1-6)]Man(b1-4)GlcNAc(b1-4)GlcNAc
# Method in brief: as §1
# [18] = target: Gal(a1-4)Gal(b1-4)GlcNAc(b1-3)Gal(b1-4)Glc
# Method in brief: as §1
# Gal(a1-4)GlcNAc = target: Gal(a1-4)GlcNAc
# Method in brief: as §1
# Gal(a1-6)Glc = target: Gal(a1-6)Glc
# Method in brief: as §1
# Gal(b1-2)Gal = target: Gal(b1-2)Gal
# Method in brief: as §1
# Gal(b1-3)Gal = target: Gal(b1-3)Gal
# Method in brief: as §1
# Gal(b1-3)Gal(b1-4)GlcNAc = target: Gal(b1-3)Gal(b1-4)GlcNAc
# Method in brief: as §1
# Gal(b1-3)GalNAc = target: Gal(b1-3)GalNAc
# Method in brief: as §1
# [19] = target: Gal(b1-3)GalNAc(a1-3)[Fuc(a1-2)]Gal(b1-4)Glc
# Method in brief: as §1
# [20] = target: Gal(b1-3)GalNAc(a1-3)[Fuc(a1-2)]Gal(b1-4)GlcNAc
# Method in brief: as §1
# Gal(b1-3)GalNAc(b1-3)Gal = target: Gal(b1-3)GalNAc(b1-3)Gal
# Method in brief: as §1
binder,measurement,setting,value
B1,glycan array binding signal (z-score),[1],-0.193
same,glycan array binding signal (z-score),[2],0.14
same,glycan array binding signal (z-score),[3],-0.483
same,glycan array binding signal (z-score),Fuc(a1-4)GlcNAc,19.1
same,glycan array binding signal (z-score),Fuc(b1-3)GlcNAc,0.447
same,glycan array binding signal (z-score),Gal(a1-2)Gal,-0.091
same,glycan array binding signal (z-score),Gal(a1-3)Gal,0.236
same,glycan array binding signal (z-score),Gal(a1-3)Gal(b1-3)GlcNAc,0.959
same,glycan array binding signal (z-score),[4],-0.138
same,glycan array binding signal (z-score),[5],0.299
same,glycan array binding signal (z-score),[6],-0.457
same,glycan array binding signal (z-score),[7],-0.101
same,glycan array binding signal (z-score),[8],0.394
same,glycan array binding signal (z-score),Gal(a1-3)Gal(b1-4)Glc,-0.381
same,glycan array binding signal (z-score),Gal(a1-3)Gal(b1-4)GlcNAc,0.23
same,glycan array binding signal (z-score),[9],-0.414
same,glycan array binding signal (z-score),[10],0.709
same,glycan array binding signal (z-score),[11],-0.732
same,glycan array binding signal (z-score),[12],0.055
same,glycan array binding signal (z-score),[13],-0.425
same,glycan array binding signal (z-score),[14],-0.56
same,glycan array binding signal (z-score),Gal(a1-3)GalNAc,-0.214
same,glycan array binding signal (z-score),[15],1.28
same,glycan array binding signal (z-score),[16],-0.247
same,glycan array binding signal (z-score),Gal(a1-4)Gal(b1-4)Glc,0.739
same,glycan array binding signal (z-score),Gal(a1-4)Gal(b1-4)GlcNAc,0.261
same,glycan array binding signal (z-score),[17],0.55
same,glycan array binding signal (z-score),[18],-0.507
same,glycan array binding signal (z-score),Gal(a1-4)GlcNAc,0.096
same,glycan array binding signal (z-score),Gal(a1-6)Glc,0.432
same,glycan array binding signal (z-score),Gal(b1-2)Gal,0.055
same,glycan array binding signal (z-score),Gal(b1-3)Gal,0.251
same,glycan array binding signal (z-score),Gal(b1-3)Gal(b1-4)GlcNAc,-0.593
same,glycan array binding signal (z-score),Gal(b1-3)GalNAc,-0.057
same,glycan array binding signal (z-score),[19],-0.521
same,glycan array binding signal (z-score),[20],-0.695
same,glycan array binding signal (z-score),Gal(b1-3)GalNAc(b1-3)Gal,-0.698
